# Data: article PMC12820563, “FoxP3 forms a head-to-head dimer in vivo and stabilizes its multimerization on adjacent microsatellites”
# The list shows a part of the results.
# Target: T1, MBP-FoxP1dN (Mus musculus, UniProt P58462 326-579)
# T1 sequence: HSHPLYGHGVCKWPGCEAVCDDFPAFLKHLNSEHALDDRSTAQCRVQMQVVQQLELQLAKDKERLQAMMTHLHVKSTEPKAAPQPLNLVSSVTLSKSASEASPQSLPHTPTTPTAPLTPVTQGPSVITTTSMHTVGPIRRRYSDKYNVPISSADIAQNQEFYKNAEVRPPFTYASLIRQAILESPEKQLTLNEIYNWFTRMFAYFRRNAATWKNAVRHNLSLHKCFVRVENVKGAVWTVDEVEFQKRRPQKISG
# Test: PD-seq (MBP pull-down with sequencing); 20 mM Tris-HCl pH 7.5, 100 mM NaCl, 1.5 mM MgCl2, 0.4 uM protein, 0.1 uM dsDNA library, 30 min, room temperature, amylose pull-down; high values mean tight binding
# Conditions: protein: recombinant; tags: His6-MBP; chain copies: 2; dsDNA, one strand shown
# Summary of the method: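 A degenerate double-stranded DNA library, filled in with Klenow, was added at 0.1 µM to 0.4 µM His6-MBP-tagged mouse FoxP3 or FoxP1 fragment lacking the N-terminus, expressed in E. coli. Incubation lasted 30 min at room temperature in Tris pH 7.5 buffer with NaCl and MgCl2, after which complexes were collected on amylose resin, washed three times, digested with proteinase K to free the DNA, barcoded by PCR and sequenced by Illumina. Binding is the pooled-replicate reads-per-million enrichment of pull-down over input.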
row,Sequence,binding signal
1,GATGATTGTTCTCCCAGCTGATGAATTTATTTTCTCGAGTAAACAAATTTTCCTAATCTTTCTGTTCAAGCGCCATCTAC,1.77 RPM ratio (pull-down/input)
2,GATGATTGTTCTCCCAGCTGATGAATTCTGAGATTCGAGTAAACAAATTTTCCTAATCTTTCTGTTCAAGCGCCATCTAC,0.879 RPM ratio (pull-down/input)
3,GATGATTGTTCTCCCAGCTGATGAATTCAACTCATCGAGTAAACAAATTTTCCTAATCTTTCTGTTCAAGCGCCATCTAC,0.88 RPM ratio (pull-down/input)
4,GATGATTGTTCTCCCAGCTGATGAATTCTCCGGTTCGAGTAAACAAATTTTCCTAATCTTTCTGTTCAAGCGCCATCTAC,0.8 RPM ratio (pull-down/input)
5,GATGATTGTTCTCCCAGCTGATGAATTGTAGACGTCGAGTAAACAAATTTTCCTAATCTTTCTGTTCAAGCGCCATCTAC,0.93 RPM ratio (pull-down/input)
6,GATGATTGTTCTCCCAGCTGATGAATTTACCTCATCGAGTAAACAAATTTTCCTAATCTTTCTGTTCAAGCGCCATCTAC,1.18 RPM ratio (pull-down/input)
7,GATGATTGTTCTCCCAGCTGATGAATTCCACTGATCGAGTAAACAAATTTTCCTAATCTTTCTGTTCAAGCGCCATCTAC,0.809 RPM ratio (pull-down/input)
8,GATGATTGTTCTCCCAGCTGATGAATTGAGCTCATCGAGTAAACAAATTTTCCTAATCTTTCTGTTCAAGCGCCATCTAC,0.874 RPM ratio (pull-down/input)
9,GATGATTGTTCTCCCAGCTGATGAATTTTAGACCTCGAGTAAACAAATTTTCCTAATCTTTCTGTTCAAGCGCCATCTAC,0.776 RPM ratio (pull-down/input)
10,GATGATTGTTCTCCCAGCTGATGAATTTTTCTTTTCGAGTAAACAAATTTTCCTAATCTTTCTGTTCAAGCGCCATCTAC,1.04 RPM ratio (pull-down/input)
11,GATGATTGTTCTCCCAGCTGATGAATTTTAAAATTCGAGTAAACAAATTTTCCTAATCTTTCTGTTCAAGCGCCATCTAC,0.885 RPM ratio (pull-down/input)
12,GATGATTGTTCTCCCAGCTGATGAATTGCTTAACTCGAGTAAACAAATTTTCCTAATCTTTCTGTTCAAGCGCCATCTAC,0.986 RPM ratio (pull-down/input)
13,GATGATTGTTCTCCCAGCTGATGAATTGGATTTCTCGAGTAAACAAATTTTCCTAATCTTTCTGTTCAAGCGCCATCTAC,0.806 RPM ratio (pull-down/input)
14,GATGATTGTTCTCCCAGCTGATGAATTATCTGTTTCGAGTAAACAAATTTTCCTAATCTTTCTGTTCAAGCGCCATCTAC,1.18 RPM ratio (pull-down/input)
15,GATGATTGTTCTCCCAGCTGATGAATTGGGGCAATCGAGTAAACAAATTTTCCTAATCTTTCTGTTCAAGCGCCATCTAC,1.01 RPM ratio (pull-down/input)
16,GATGATTGTTCTCCCAGCTGATGAATTTACCCTGTCGAGTAAACAAATTTTCCTAATCTTTCTGTTCAAGCGCCATCTAC,1.1 RPM ratio (pull-down/input)
17,GATGATTGTTCTCCCAGCTGATGAATTCAAGCGCTCGAGTAAACAAATTTTCCTAATCTTTCTGTTCAAGCGCCATCTAC,0.861 RPM ratio (pull-down/input)
18,GATGATTGTTCTCCCAGCTGATGAATTTAGAATCTCGAGTAAACAAATTTTCCTAATCTTTCTGTTCAAGCGCCATCTAC,0.905 RPM ratio (pull-down/input)
19,GATGATTGTTCTCCCAGCTGATGAATTCGAGTTTTCGAGTAAACAAATTTTCCTAATCTTTCTGTTCAAGCGCCATCTAC,1.08 RPM ratio (pull-down/input)
20,GATGATTGTTCTCCCAGCTGATGAATTTAGACCCTCGAGTAAACAAATTTTCCTAATCTTTCTGTTCAAGCGCCATCTAC,0.884 RPM ratio (pull-down/input)
21,GATGATTGTTCTCCCAGCTGATGAATTTGCACGATCGAGTAAACAAATTTTCCTAATCTTTCTGTTCAAGCGCCATCTAC,0.952 RPM ratio (pull-down/input)

row,Sequence,binding signal
1,GATGATTGTTCTCCCAGCTGATGAATTCGAAACATCGAGTAAACAAATTTTCCTAATCTTTCTGTTCAAGCGCCATCTAC,1.1 RPM ratio (pull-down/input)
2,GATGATTGTTCTCCCAGCTGATGAATTAAAACCGTCGAGTAAACAAATTTTCCTAATCTTTCTGTTCAAGCGCCATCTAC,0.89 RPM ratio (pull-down/input)
3,GATGATTGTTCTCCCAGCTGATGAATTCTTCCTATCGAGTAAACAAATTTTCCTAATCTTTCTGTTCAAGCGCCATCTAC,0.892 RPM ratio (pull-down/input)
4,GATGATTGTTCTCCCAGCTGATGAATTATTATCTTCGAGTAAACAAATTTTCCTAATCTTTCTGTTCAAGCGCCATCTAC,1.17 RPM ratio (pull-down/input)
5,GATGATTGTTCTCCCAGCTGATGAATTTGCGAGGTCGAGTAAACAAATTTTCCTAATCTTTCTGTTCAAGCGCCATCTAC,0.867 RPM ratio (pull-down/input)
6,GATGATTGTTCTCCCAGCTGATGAATTCTCATTCTCGAGTAAACAAATTTTCCTAATCTTTCTGTTCAAGCGCCATCTAC,0.831 RPM ratio (pull-down/input)
7,GATGATTGTTCTCCCAGCTGATGAATTTCAGCGGTCGAGTAAACAAATTTTCCTAATCTTTCTGTTCAAGCGCCATCTAC,0.794 RPM ratio (pull-down/input)
8,GATGATTGTTCTCCCAGCTGATGAATTTGTAGACTCGAGTAAACAAATTTTCCTAATCTTTCTGTTCAAGCGCCATCTAC,0.985 RPM ratio (pull-down/input)
9,GATGATTGTTCTCCCAGCTGATGAATTGAGAGAATCGAGTAAACAAATTTTCCTAATCTTTCTGTTCAAGCGCCATCTAC,0.971 RPM ratio (pull-down/input)
10,GATGATTGTTCTCCCAGCTGATGAATTAGTGTCTTCGAGTAAACAAATTTTCCTAATCTTTCTGTTCAAGCGCCATCTAC,1.06 RPM ratio (pull-down/input)
11,GATGATTGTTCTCCCAGCTGATGAATTTAGCATATCGAGTAAACAAATTTTCCTAATCTTTCTGTTCAAGCGCCATCTAC,1.1 RPM ratio (pull-down/input)
12,GATGATTGTTCTCCCAGCTGATGAATTTATGATATCGAGTAAACAAATTTTCCTAATCTTTCTGTTCAAGCGCCATCTAC,1.33 RPM ratio (pull-down/input)
13,GATGATTGTTCTCCCAGCTGATGAATTACTCCCGTCGAGTAAACAAATTTTCCTAATCTTTCTGTTCAAGCGCCATCTAC,0.957 RPM ratio (pull-down/input)
14,GATGATTGTTCTCCCAGCTGATGAATTGAGTTGCTCGAGTAAACAAATTTTCCTAATCTTTCTGTTCAAGCGCCATCTAC,0.953 RPM ratio (pull-down/input)
15,GATGATTGTTCTCCCAGCTGATGAATTTCGGGAGTCGAGTAAACAAATTTTCCTAATCTTTCTGTTCAAGCGCCATCTAC,0.782 RPM ratio (pull-down/input)
16,GATGATTGTTCTCCCAGCTGATGAATTGAATGCCTCGAGTAAACAAATTTTCCTAATCTTTCTGTTCAAGCGCCATCTAC,1 RPM ratio (pull-down/input)
17,GATGATTGTTCTCCCAGCTGATGAATTATAAGGTTCGAGTAAACAAATTTTCCTAATCTTTCTGTTCAAGCGCCATCTAC,0.895 RPM ratio (pull-down/input)
18,GATGATTGTTCTCCCAGCTGATGAATTCCTCTGGTCGAGTAAACAAATTTTCCTAATCTTTCTGTTCAAGCGCCATCTAC,0.803 RPM ratio (pull-down/input)
19,GATGATTGTTCTCCCAGCTGATGAATTAATGCCATCGAGTAAACAAATTTTCCTAATCTTTCTGTTCAAGCGCCATCTAC,1.24 RPM ratio (pull-down/input)
20,GATGATTGTTCTCCCAGCTGATGAATTAGTATTATCGAGTAAACAAATTTTCCTAATCTTTCTGTTCAAGCGCCATCTAC,1.75 RPM ratio (pull-down/input)
21,GATGATTGTTCTCCCAGCTGATGAATTCACACAGTCGAGTAAACAAATTTTCCTAATCTTTCTGTTCAAGCGCCATCTAC,0.96 RPM ratio (pull-down/input)

row,Sequence,binding signal
1,GATGATTGTTCTCCCAGCTGATGAATTGATCGTGTCGAGTAAACAAATTTTCCTAATCTTTCTGTTCAAGCGCCATCTAC,0.96 RPM ratio (pull-down/input)
2,GATGATTGTTCTCCCAGCTGATGAATTTCTTACGTCGAGTAAACAAATTTTCCTAATCTTTCTGTTCAAGCGCCATCTAC,0.904 RPM ratio (pull-down/input)
3,GATGATTGTTCTCCCAGCTGATGAATTGTGGCCATCGAGTAAACAAATTTTCCTAATCTTTCTGTTCAAGCGCCATCTAC,1.08 RPM ratio (pull-down/input)
4,GATGATTGTTCTCCCAGCTGATGAATTTAAGGGCTCGAGTAAACAAATTTTCCTAATCTTTCTGTTCAAGCGCCATCTAC,0.73 RPM ratio (pull-down/input)
5,GATGATTGTTCTCCCAGCTGATGAATTCTGTCTGTCGAGTAAACAAATTTTCCTAATCTTTCTGTTCAAGCGCCATCTAC,0.801 RPM ratio (pull-down/input)
6,GATGATTGTTCTCCCAGCTGATGAATTAATCAAGTCGAGTAAACAAATTTTCCTAATCTTTCTGTTCAAGCGCCATCTAC,0.946 RPM ratio (pull-down/input)
7,GATGATTGTTCTCCCAGCTGATGAATTGGTAGGGTCGAGTAAACAAATTTTCCTAATCTTTCTGTTCAAGCGCCATCTAC,0.808 RPM ratio (pull-down/input)
8,GATGATTGTTCTCCCAGCTGATGAATTGGCGCAGTCGAGTAAACAAATTTTCCTAATCTTTCTGTTCAAGCGCCATCTAC,0.871 RPM ratio (pull-down/input)
9,GATGATTGTTCTCCCAGCTGATGAATTTCGAGTCTCGAGTAAACAAATTTTCCTAATCTTTCTGTTCAAGCGCCATCTAC,0.779 RPM ratio (pull-down/input)
10,GATGATTGTTCTCCCAGCTGATGAATTCTTTTAGTCGAGTAAACAAATTTTCCTAATCTTTCTGTTCAAGCGCCATCTAC,0.943 RPM ratio (pull-down/input)
11,GATGATTGTTCTCCCAGCTGATGAATTGGCCAGGTCGAGTAAACAAATTTTCCTAATCTTTCTGTTCAAGCGCCATCTAC,0.73 RPM ratio (pull-down/input)
12,GATGATTGTTCTCCCAGCTGATGAATTACAACCTTCGAGTAAACAAATTTTCCTAATCTTTCTGTTCAAGCGCCATCTAC,1.27 RPM ratio (pull-down/input)
13,GATGATTGTTCTCCCAGCTGATGAATTTAACAACTCGAGTAAACAAATTTTCCTAATCTTTCTGTTCAAGCGCCATCTAC,1.02 RPM ratio (pull-down/input)
14,GATGATTGTTCTCCCAGCTGATGAATTAATAGGCTCGAGTAAACAAATTTTCCTAATCTTTCTGTTCAAGCGCCATCTAC,0.909 RPM ratio (pull-down/input)
15,GATGATTGTTCTCCCAGCTGATGAATTCTAGGGCTCGAGTAAACAAATTTTCCTAATCTTTCTGTTCAAGCGCCATCTAC,0.759 RPM ratio (pull-down/input)
16,GATGATTGTTCTCCCAGCTGATGAATTGGCGGTCTCGAGTAAACAAATTTTCCTAATCTTTCTGTTCAAGCGCCATCTAC,0.801 RPM ratio (pull-down/input)
17,GATGATTGTTCTCCCAGCTGATGAATTCGGCCGCTCGAGTAAACAAATTTTCCTAATCTTTCTGTTCAAGCGCCATCTAC,0.734 RPM ratio (pull-down/input)
18,GATGATTGTTCTCCCAGCTGATGAATTGAATGACTCGAGTAAACAAATTTTCCTAATCTTTCTGTTCAAGCGCCATCTAC,0.85 RPM ratio (pull-down/input)
19,GATGATTGTTCTCCCAGCTGATGAATTACGGCGATCGAGTAAACAAATTTTCCTAATCTTTCTGTTCAAGCGCCATCTAC,0.945 RPM ratio (pull-down/input)
20,GATGATTGTTCTCCCAGCTGATGAATTGCAGCGTTCGAGTAAACAAATTTTCCTAATCTTTCTGTTCAAGCGCCATCTAC,1.08 RPM ratio (pull-down/input)
21,GATGATTGTTCTCCCAGCTGATGAATTGGTAAATTCGAGTAAACAAATTTTCCTAATCTTTCTGTTCAAGCGCCATCTAC,1.21 RPM ratio (pull-down/input)
